# Measured values: the supplement of paper PMC10037445
# Over roughly 2,900 compounds, “IRF Lucia reporter activity, fold change vs agonist alone” has its median near 0.9; the highest 2% begin near 2.8. The list shows a part of the results.
# Experiments:
# RAW-Dual [1] = assay: IRF Lucia reporter activity, fold change vs agonist alone; cytotoxicity flag (confluency mask): not cytotoxic; higher = enhanced IRF activity
# Summary of the method: (§1)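 Cytotoxic wells were those whose IncuCyte confluency was below 70% of agonist controls in both mask sets. The cells were RAW-Dual macrophages at 50,000 cells/well in DMEM on 384-well plates, dosed with 50 nL of library stock by pin tool, stimulated with a PRR agonist 1 h later, and kept at 37 °C, 5% CO2 for 20 hours. IRF and NF-κB reporter activity, as fold change over agonist-alone wells, came from supernatant read by QuantiLuc luminescence and QuantiBlue absorbance, respectively.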
# RAW-Dual [2] = assay: IRF Lucia reporter activity, fold change vs agonist alone; higher = enhanced IRF activity; details: library stock concentration (final ~1000-fold dilution): 10 mM; cytotoxicity flag (confluency mask): not cytotoxic; agonist: MPLA (TLR4) […]
# Summary of the method: as §1
# RAW-Dual [3] = assay: IRF Lucia reporter activity, fold change vs agonist alone; cytotoxicity flag (confluency mask): cytotoxic (confluency <70% of control); higher = enhanced IRF activity
# Summary of the method: as §1
# [4] = agonist: 3'3'-cGAMP (STING) 10 ug/mL
structure (smiles),measurement,setting,value
CC/C(C)=C/CC[C@](C)(O)C1CC[C@]2(C)C3C[C@@H](O[C@@H]4O[C@H](CO)[C@@H](O)[C@H](O)[C@H]4O[C@@H]4O[C@@H](C)[C@H](O)[C@@H](O)[C@H]4O)C4C(C)(C)C(O)CC[C@]4(C)C3C[C@H](O)C12 (stereo partly drawn) (library stock concentration (final ~1000-fold dilution): 10 mM),IRF Lucia reporter activity,RAW-Dual [1]; [4],0.856
same,IRF Lucia reporter activity,RAW-Dual [1]; agonist: LPS (TLR4) 0.1 ug/mL,0.999
Cc1c(CN2CCN(C(=O)C(C)O)CC2)sc2c(N3CCOCC3)nc(-c3cnc(N)nc3)nc12 (stereo not drawn),IRF Lucia reporter activity,RAW-Dual [2],0.891
Cc1c(CN2CCN(C(=O)C(C)O)CC2)sc2c(N3CCOCC3)nc(-c3cnc(N)nc3)nc12 (stereo not drawn) (library stock concentration (final ~1000-fold dilution): 10 mM),IRF Lucia reporter activity,RAW-Dual [1]; [4],0.373
same,IRF Lucia reporter activity,RAW-Dual [1]; agonist: LPS (TLR4) 0.1 ug/mL,0.997
O=C(NCc1ccncc1)C12CC3CC(C1)CC(c1ccc(Cl)cc1)(C3)C2,IRF Lucia reporter activity,RAW-Dual [2],1.29
O=C(NCc1ccncc1)C12CC3CC(C1)CC(c1ccc(Cl)cc1)(C3)C2 (library stock concentration (final ~1000-fold dilution): 10 mM),IRF Lucia reporter activity,RAW-Dual [1]; [4],0.409
same,IRF Lucia reporter activity,RAW-Dual [1]; agonist: LPS (TLR4) 0.1 ug/mL,0.998
CCOc1ccc2c(c1)C(C)=CC(C)(C)N2 (library stock concentration (final ~1000-fold dilution): 10 mM),IRF Lucia reporter activity,RAW-Dual [1]; [4],0.888
same,IRF Lucia reporter activity,RAW-Dual [1]; agonist: LPS (TLR4) 0.1 ug/mL,1.38
COc1cc2c(c(O)c1OC)-c1c(cc(OC)c(OC)c1OC)CC(C)C(C)C2 (stereo not drawn) (library stock concentration (final ~1000-fold dilution): 10 mM),IRF Lucia reporter activity,RAW-Dual [1]; [4],1.48
same,IRF Lucia reporter activity,RAW-Dual [1]; agonist: LPS (TLR4) 0.1 ug/mL,0.929
CCC(=O)N1CCC(Nc2ncnc3c2CN(c2cnc(OC)c(C(F)(F)F)c2)CC3)C1 (stereo not drawn) (library stock concentration (final ~1000-fold dilution): 10 mM),IRF Lucia reporter activity,RAW-Dual [1]; [4],0.908
same,IRF Lucia reporter activity,RAW-Dual [1]; agonist: LPS (TLR4) 0.1 ug/mL,0.847
NC(=O)Cc1cccc(C(=O)c2ccccc2)c1N (library stock concentration (final ~1000-fold dilution): 10 mM),IRF Lucia reporter activity,RAW-Dual [1]; [4],0.95
same,IRF Lucia reporter activity,RAW-Dual [1]; agonist: LPS (TLR4) 0.1 ug/mL,1.18
NC(=O)Cc1cccc(C(=O)c2ccccc2)c1N,IRF Lucia reporter activity,RAW-Dual [2],1.07
CN(c1ncccc1CNc1nc(Nc2ccc3c(c2)CC(=O)N3)ncc1C(F)(F)F)S(C)(=O)=O.O=S(=O)(O)c1ccccc1,IRF Lucia reporter activity,RAW-Dual [2],1.1
CN(c1ncccc1CNc1nc(Nc2ccc3c(c2)CC(=O)N3)ncc1C(F)(F)F)S(C)(=O)=O.O=S(=O)(O)c1ccccc1 (library stock concentration (final ~1000-fold dilution): 10 mM),IRF Lucia reporter activity,RAW-Dual [1]; [4],1.01
same,IRF Lucia reporter activity,RAW-Dual [1]; agonist: LPS (TLR4) 0.1 ug/mL,0.0165
CC(C)NCC(O)c1ccc(NS(C)(=O)=O)cc1.Cl (stereo not drawn) (library stock concentration (final ~1000-fold dilution): 10 mM),IRF Lucia reporter activity,RAW-Dual [1]; [4],1.02
same,IRF Lucia reporter activity,RAW-Dual [1]; agonist: LPS (TLR4) 0.1 ug/mL,1.06
CC(C)NCC(O)c1ccc(NS(C)(=O)=O)cc1.Cl (stereo not drawn),IRF Lucia reporter activity,RAW-Dual [2],1.04
O=[N+]([O-])c1ccc2c(c1)S(=O)(=O)C=C2 (library stock concentration (final ~1000-fold dilution): 10 mM),IRF Lucia reporter activity,RAW-Dual [1]; [4],0.0121
same,IRF Lucia reporter activity,RAW-Dual [1]; agonist: LPS (TLR4) 0.1 ug/mL,0.0195
O=[N+]([O-])c1ccc2c(c1)S(=O)(=O)C=C2,IRF Lucia reporter activity,RAW-Dual [2],0.0226
CCCCCCCCC/C(=C\C1=C(C)C(=O)C(OC)=C(OC)C1=O)C(=O)O (library stock concentration (final ~1000-fold dilution): 10 mM),IRF Lucia reporter activity,RAW-Dual [1]; [4],0.636
same,IRF Lucia reporter activity,RAW-Dual [1]; agonist: LPS (TLR4) 0.1 ug/mL,1.06
CCCCCCCCC/C(=C\C1=C(C)C(=O)C(OC)=C(OC)C1=O)C(=O)O,IRF Lucia reporter activity,RAW-Dual [2],1.01
CC(=O)NC(CS)C(=O)O (stereo not drawn),IRF Lucia reporter activity,RAW-Dual [2],0.885
CC(=O)NC(CS)C(=O)O (stereo not drawn) (library stock concentration (final ~1000-fold dilution): 10 mM),IRF Lucia reporter activity,RAW-Dual [1]; [4],0.952
same,IRF Lucia reporter activity,RAW-Dual [1]; agonist: LPS (TLR4) 0.1 ug/mL,0.675
Nc1ccccc1NC(=O)c1ccc(CNC(=O)OCc2cccnc2)cc1,IRF Lucia reporter activity,RAW-Dual [2],1.03
Nc1ccccc1NC(=O)c1ccc(CNC(=O)OCc2cccnc2)cc1 (library stock concentration (final ~1000-fold dilution): 10 mM),IRF Lucia reporter activity,RAW-Dual [1]; [4],0.969
same,IRF Lucia reporter activity,RAW-Dual [1]; agonist: LPS (TLR4) 0.1 ug/mL,1.08
CC1(C)CC[C@]2(C(=O)O)[C@H](O)C[C@]3(C)C(=CC[C@@H]4[C@@]5(C)CC[C@H](O)C(C)(C)[C@@H]5CC[C@]43C)[C@@H]2C1 (library stock concentration (final ~1000-fold dilution): 10 mM),IRF Lucia reporter activity,RAW-Dual [3]; [4],0.751
same,IRF Lucia reporter activity,RAW-Dual [3]; agonist: LPS (TLR4) 0.1 ug/mL,1.39
Cl.O=C1Cc2cc(CCN3CCN(c4nsc5ccccc45)CC3)c(Cl)cc2N1,IRF Lucia reporter activity,RAW-Dual [2],0.607
Cl.O=C1Cc2cc(CCN3CCN(c4nsc5ccccc45)CC3)c(Cl)cc2N1 (library stock concentration (final ~1000-fold dilution): 10 mM),IRF Lucia reporter activity,RAW-Dual [1]; [4],0.802
same,IRF Lucia reporter activity,RAW-Dual [1]; agonist: LPS (TLR4) 0.1 ug/mL,0.764
COc1ccc(Cc2cnc(N)nc2N)cc1OC,IRF Lucia reporter activity,RAW-Dual [2],1.1
COc1ccc(Cc2cnc(N)nc2N)cc1OC (library stock concentration (final ~1000-fold dilution): 10 mM),IRF Lucia reporter activity,RAW-Dual [1]; [4],1.12
same,IRF Lucia reporter activity,RAW-Dual [1]; agonist: LPS (TLR4) 0.1 ug/mL,1.01
